The full ranking holds about 81,000 sequences; the median of “one-hybrid fitness for binding parS DNA” is about -0.17, and the highest 2% start at about 0.51. Some of the results follow.
B1: Caulobacter ParB omega fusion; a variant is named by its letters at X, in order, B8GW30 (parent)
chain: MESVVVGEPGMSEGRRGLGRGLSALLGEVDAAPAQAPGEQLGGSREAPIEILQRNPDQPRRTFREEDLEDLSNSIREKGVLQPILVRPSPDTAGEYQIVAGERAWRAAQRAGLKTVPIMVRELDDLAVLEIGIIENVQRADLNVLEEALSYKVLMEKFERTQENIAQTIGKSXSHVANXMRLLXLPDEVQSYLVSGELTAXHARAIAAAADPVALAKQIIEGGLSVRETEALARKAPNLSAGKSKGGRPPRVKDTDTQALESDLSSVLGLDVSIDHRGSTGTLTITYATLEQLDDLCNRLTRGI

Variants of: B1
Test: one-hybrid fitness for binding parS DNA (scaled: cognate 1, non-cognate 0); higher = stronger binding
Conditions: with parS DNA site
Outline: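 The reporter was HIS3, with the binding site 19 bp from the promoter, in E. coli USO used for bacterial one-hybrid selection of Caulobacter ParB libraries with four specificity codons randomised. Growth was on M9 lacking histidine, with 0.1 mM IPTG and 5 mM 3-AT, for 48 hours at 37°C. Illumina sequencing covered plasmids before and after selection; three replicate libraries were pooled and variants with under 10 reads dropped. A fitness score is the log change in variant-to-wild-type read ratio, rescaled to the cognate and non-cognate references.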

Variant | one-hybrid fitness for binding parS DNA
YLPE | ≤ 0.2
PKMS | ≤ 0.2
GDRV | ≤ 0.2
LSTM | ≤ 0.2
MAIC | ≤ 0.2
ASSY | ≤ 0.2
YMLN | ≤ 0.2
REQG | ≤ 0.2
LPPE | ≤ 0.2
CRGG | ≤ 0.2
ELRY | ≤ 0.2
CRYG | ≤ 0.2
TSKC | ≤ 0.2
RVKN | 0.46
QMYN | ≤ 0.2
DTER | ≤ 0.2
ALNF | ≤ 0.2
FMTP | ≤ 0.2
WNIV | ≤ 0.2
DMYS | ≤ 0.2
LFQS | ≤ 0.2

Variant | one-hybrid fitness for binding parS DNA
ARRD | ≤ 0.2
QAEM | ≤ 0.2
TRLP | ≤ 0.2
RLDQ | ≤ 0.2
KLQT | ≤ 0.2
DRGC | ≤ 0.2
RPHG | ≤ 0.2
CTDS | ≤ 0.2
NMFN | ≤ 0.2
PHRK | ≤ 0.2
KSKH | ≤ 0.2
NRTI | ≤ 0.2
YSCT | ≤ 0.2
YRDT | ≤ 0.2
CGRV | ≤ 0.2
LLTG | ≤ 0.2
QPAK | ≤ 0.2
GFQS | ≤ 0.2
HIPL | ≤ 0.2
IGPL | ≤ 0.2
APDR | ≤ 0.2

Variant | one-hybrid fitness for binding parS DNA
ISHT | ≤ 0.2
RMEW | ≤ 0.2
CSHI | ≤ 0.2
GVMW | ≤ 0.2
QADA | ≤ 0.2
CRAL | ≤ 0.2
KIAL | ≤ 0.2
QLCN | ≤ 0.2
KYNI | ≤ 0.2
WAPV | ≤ 0.2
GRIP | ≤ 0.2
YTTE | ≤ 0.2
NGYC | ≤ 0.2
RWQV | ≤ 0.2
NPVG | ≤ 0.2
HYNT | ≤ 0.2
LLSW | ≤ 0.2
TPGA | ≤ 0.2
WMAT | ≤ 0.2
SKLC | ≤ 0.2
LDTG | ≤ 0.2

Variant | one-hybrid fitness for binding parS DNA
KLIR | ≤ 0.2
WPCC | ≤ 0.2
ALAH | ≤ 0.2
QMET | ≤ 0.2
NWRV | ≤ 0.2
KRLH | ≤ 0.2
MCDG | ≤ 0.2
HTQT | ≤ 0.2
EWIR | ≤ 0.2
HTGH | ≤ 0.2
RWSK | ≤ 0.2
PTHF | ≤ 0.2
QGAY | ≤ 0.2
PYQW | ≤ 0.2
KLLF | ≤ 0.2
CMAL | ≤ 0.2
AHVR | ≤ 0.2
VKER | ≤ 0.2
ANGG | ≤ 0.2
YCSG | ≤ 0.2
TLNT | ≤ 0.2

Reference: a collection of fitness landscapes (doi:10.1016/j.celrep.2020.107928)
